Test results reported in the supplement of paper PMC3334620.
Over roughly 33,000 sequences, “E-score (-0.5 to 0.5)” has its median near -0.011; the highest 2% begin near 0.28. The list shows a part of the results.

These sequences were tested against T1, Gcr1 (UniProt P07261) (assay: PBM E-score (8-mer binding enrichment) (E-score (-0.5 to 0.5)); higher = stronger / more preferred TF binding; most listed sequences are background and not binding sites). Settings: protein concentration: 100 nM; construct: GST-full length.
T1 sequence: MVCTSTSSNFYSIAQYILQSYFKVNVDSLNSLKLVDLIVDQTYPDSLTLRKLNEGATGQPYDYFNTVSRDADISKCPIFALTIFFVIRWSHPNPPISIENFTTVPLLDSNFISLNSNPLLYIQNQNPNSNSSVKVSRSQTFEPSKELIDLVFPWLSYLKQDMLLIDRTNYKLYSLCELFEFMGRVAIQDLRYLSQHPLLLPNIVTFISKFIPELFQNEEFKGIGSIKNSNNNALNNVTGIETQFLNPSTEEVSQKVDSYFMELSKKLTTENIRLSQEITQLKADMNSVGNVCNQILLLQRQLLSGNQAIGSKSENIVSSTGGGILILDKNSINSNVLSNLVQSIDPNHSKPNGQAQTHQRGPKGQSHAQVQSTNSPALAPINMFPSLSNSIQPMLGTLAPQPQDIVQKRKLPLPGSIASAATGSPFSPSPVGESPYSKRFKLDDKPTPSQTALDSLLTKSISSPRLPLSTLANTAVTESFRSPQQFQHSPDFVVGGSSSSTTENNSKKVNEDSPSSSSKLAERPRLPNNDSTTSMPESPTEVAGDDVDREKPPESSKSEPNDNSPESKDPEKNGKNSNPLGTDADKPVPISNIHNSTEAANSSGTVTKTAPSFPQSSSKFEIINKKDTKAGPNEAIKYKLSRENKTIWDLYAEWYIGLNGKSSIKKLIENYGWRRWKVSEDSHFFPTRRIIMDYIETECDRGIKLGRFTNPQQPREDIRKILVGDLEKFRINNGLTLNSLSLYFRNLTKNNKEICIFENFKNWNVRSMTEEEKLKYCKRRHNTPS
Protocol: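 Universal 'all 10-mer' protein binding microarrays (Agilent AMADID 015681) probed with GST-tagged S. cerevisiae TFs (full-length or DBD) made by in vitro transcription/translation (PURExpress), about 100-200 nM. Bound TF was detected with fluorescent anti-GST. Each ungapped 8-mer (which stands for itself and its reverse complement) is scored by the PBM enrichment score (E-score), a modified Wilcoxon-Mann-Whitney statistic from -0.5 to +0.5, computed with the Universal PBM Analysis Suite. Scale: above 0.35 generally sequence-specific binding.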

Row | Sequence | PBM E-score
1 | CCGATCGG | 0.107
2 | GGCAGCAC | -0.0566
3 | CTTGGAAC | 0.0986
4 | CACAACTG | 0.127
5 | AAATAGCC | -0.0925
6 | CAGATCCG | -0.148
7 | CAGCACCA | 0.277
8 | TAGGCTCA | -0.262
9 | CGGAGCGC | 0.099
10 | GTTCTGAA | -0.14
11 | GAACAAGA | 0.133
12 | GCGGCGCA | -0.064
13 | ATTGGTGC | 0.141
14 | CTATACAA | 0.0862
15 | TAATAATA | 0.147
16 | CGATGTTC | -0.0449
17 | GGTCCGGA | -0.101
18 | CCAGAACA | -0.0128
19 | AAAACTAG | 0.0364
20 | GCAAAGCC | -0.173
21 | ATCGTTTC | -0.0918
22 | GAGGAGCA | -0.19

Row | Sequence | PBM E-score
23 | TCTTGACA | -0.113
24 | ACTAAGTG | -0.0454
25 | CGGTCTAA | -0.123
26 | CGGGCGTA | -0.097
27 | CCTGCACC | -0.0248
28 | GAAGTATA | -0.189
29 | GAGCATGA | -0.0995
30 | GCGTTCTA | 0.0324
31 | AAAGATGG | 0.0718
32 | CATTATCC | 0.0765
33 | CACGGTAC | -0.156
34 | GTAGCGAA | -0.0593
35 | CAATTATC | 0.109
36 | CAGCGCCA | 0.0174
37 | CGACACCA | 0.0926
38 | CGCGTAAG | -0.185
39 | ATTCGCCG | 0.11
40 | ATATCTAG | 0.123
41 | CTTCGTTA | -0.0392
42 | CAGGTTAG | -0.0416
43 | ATAAGTAT | 0.0878
44 | CCGCTCCC | 0.0618

Row | Sequence | PBM E-score
45 | AGACTCAC | -0.173
46 | ATTGAGGG | -0.0172
47 | TCTTTAAA | -0.0381
48 | AGGGTTTA | -0.142
49 | GATGCCAA | 0.351
50 | CGTGCTCA | 0.0706
51 | CCACGACG | -0.243
52 | GCGTACGA | -0.042
53 | TAATAGGA | 0.278
54 | CGTCTAGA | -0.0439
55 | ACTTTATG | -0.175
56 | CTCCCACC | 0.00127
57 | GAGGCCGA | 0.0579
58 | CGTCAGGC | -0.131
59 | CCTATCGA | 0.122
60 | AATTGTGC | -0.137
61 | CGGCCGCC | 0.11
62 | ACATGTTC | -0.0802
63 | GCCAGTAA | 0.254
64 | ACAATAGA | 0.0995
65 | ATTGGGGG | 0.092
66 | AGCCGTAG | -0.154

Row | Sequence | PBM E-score
67 | CCATTGTC | -0.121
68 | AAGTGCGG | 0.0932
69 | AAACATAG | -0.0739
70 | ACTTCTAG | -0.0229
71 | GGCCGGCA | -0.00082
72 | TGACCACA | -0.113
73 | CGATAGAG | -0.0218
74 | CGCACTCA | -0.258
75 | ATTCCAAA | 0.307
76 | GGCGCAGA | 0.0458
77 | CTACAACC | 0.0248
78 | ACATATGG | 0.109
79 | CTCGCTTC | 0.0436
80 | ACGGTAGC | 0.00681
81 | GGCCGGAA | -0.00514
82 | CACAATAG | 0.0887
83 | TAGCATAA | -0.106
84 | CAAACGTG | 0.0744
85 | AACGTCGA | 0.0497
86 | AAATCTTG | 0.0316
